{"source": "PubChem BioAssay AID686992", "about": "(Broad Institute, 2013)", "note": "Screen size: about 260,000 compounds; about 960 (0.37%) were called active. This list was built around the results that the source calls inconclusive (neither active nor inactive); the mix of calls is not that of the screen.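 The calls were made as follows: active = mean E-selectin-positive cell signal at least 10% of the positive control, reached in at least 60% of replicates, without over 20% cell loss; inconclusive = no rule given, readout overlaps actives, possibly toxicity-flagged; inactive = the rest, including those meeting only one limit.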"}
{"target": "E-selectin (Homo sapiens) (UniProt P16581)", "sequence (P16581 whole entry, looked up)": "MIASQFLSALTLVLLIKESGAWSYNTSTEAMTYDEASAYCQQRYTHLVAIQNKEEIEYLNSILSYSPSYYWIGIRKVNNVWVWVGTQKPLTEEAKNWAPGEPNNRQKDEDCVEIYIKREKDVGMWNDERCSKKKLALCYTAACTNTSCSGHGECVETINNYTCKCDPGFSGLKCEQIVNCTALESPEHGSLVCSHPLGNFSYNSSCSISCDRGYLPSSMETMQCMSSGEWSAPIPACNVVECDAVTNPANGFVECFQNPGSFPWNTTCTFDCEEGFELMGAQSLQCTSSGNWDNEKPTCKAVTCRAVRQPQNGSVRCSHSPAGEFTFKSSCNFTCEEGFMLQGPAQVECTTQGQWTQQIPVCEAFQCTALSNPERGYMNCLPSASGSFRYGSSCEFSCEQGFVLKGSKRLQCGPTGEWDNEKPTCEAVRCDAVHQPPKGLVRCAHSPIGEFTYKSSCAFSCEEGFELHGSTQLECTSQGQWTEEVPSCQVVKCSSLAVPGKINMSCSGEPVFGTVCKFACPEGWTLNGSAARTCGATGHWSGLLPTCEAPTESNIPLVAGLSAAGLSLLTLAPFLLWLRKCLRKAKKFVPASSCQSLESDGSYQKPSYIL", "test": "inducers of endothelial E-selectin expression – imaging, HUVEC, immunofluorescence imaging, single point, primary screen (AID 686992);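 also: signal is the percent of cells scored E-selectin positive by PE staining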", "details": "at 7.58 µM, hits give high values, normalized: neutral wells 0, TNF-alpha wells 100", "outline": "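Read-out: % PE-positive cells | Test system: HUVEC | Doses: One compound dose added by pin transfer | Buffer or medium: EGM-2 over gelatin coat | Signal: Immunofluorescence imaging | Benchmarks: TNF-alpha, DMSO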"}
{"smiles": "O=S(=O)(N[C@H]1CC[C@H](CCn2cc(-c3cccnc3)nn2)O[C@H]1CO)c1ccccc1", "activation": "inactive: -0.0415%"}
{"smiles": "C[C@@H]1CN([C@H](C)CO)C(=O)c2cc(NC(=O)CCCCCC(=O)Nc3ccccc3N)ccc2O[C@H]1CN(C)C(=O)NC1CCCCC1", "activation": "inactive: -0.358%"}
{"smiles": "CCc1ccc(/C=N\\n2cnnc2)cc1", "activation": "inconclusive: 28.5%"}
{"smiles": "COc1cc(C)c(Cl)c(C)c1S(=O)(=O)NC1CC(C)(C)NC(C)(C)C1", "activation": "inconclusive: 96.5%"}
{"smiles": "COc1cccc(CNC(=O)C[C@@H]2C=C[C@H](NC(=O)C3CCOCC3)[C@H](CO)O2)c1", "activation": "inactive: 0.17%"}
{"smiles": "COc1cccc(-c2ccc([C@@H]3[C@@H](CO)N4C(=O)CN(C(=O)C5CCC5)C[C@@H]34)cc2)c1", "activation": "inconclusive: 51.3%"}
{"smiles": "CCCCn1c(N)c(N2CCOCC2)c(=O)n(CC(=O)NC(C)c2ccccc2)c1=O", "note": "(stereo unspecified)", "activation": "inconclusive: 33.7%"}
{"smiles": "O=C(NCCCc1ccccc1)c1cccc(NC(=O)C2CCCC2)c1", "activation": "inconclusive: 43.4%"}
{"smiles": "COCCn1c(SCC(=O)Nc2ccc(NC(C)=O)cc2)nc2ccccc2c1=O", "activation": "inconclusive: 27.6%"}
{"smiles": "CNc1nc(N/N=C/c2ccc([N+](=O)[O-])cc2)nc(Nc2ccccc2)n1", "activation": "inactive: 6.55%"}
{"smiles": "O=S(=O)(O)c1cc(O)c(N=Nc2ccc(O)cc2O)c2ccccc12", "activation": "active: 65.5%"}
{"smiles": "C[C@@H]1CN([C@@H](C)CO)C(=O)c2cccc(NS(=O)(=O)c3cn(C)cn3)c2O[C@H]1CN(C)Cc1ccc(C(F)(F)F)cc1", "activation": "inactive: -5.44%"}
{"smiles": "c1ccc(Cc2noc(CN3CCN(C4CCc5ccccc5C4)CC3)n2)cc1", "note": "(stereo unspecified)", "activation": "inconclusive: 70.3%"}
{"smiles": "COc1ccc(S(=O)(=O)N(C)C[C@@H]2Oc3ccc(NC(=O)c4ccncc4)cc3C(=O)N([C@@H](C)CO)C[C@H]2C)cc1", "activation": "inactive: -15.2%"}
{"smiles": "C[C@H](CO)N1C[C@H](C)[C@H](CN(C)C(=O)c2ccccc2)OCCCC[C@H](C)Oc2ccc(NS(C)(=O)=O)cc2C1=O", "activation": "inconclusive: 37.7%"}
{"smiles": "Cc1cc2cc(CNC(=O)Nc3cccc(Cl)c3)ccc2n1C", "activation": "active: 32.9%"}
{"smiles": "C/C(=N\\NC(=O)c1cc2c(s1)CCC(C)C2)c1ccncc1", "note": "(stereo unspecified)", "activation": "inconclusive: 31.8%"}
{"smiles": "COc1ccccc1Nc1ccc(N)cc1", "activation": "inconclusive: 70.5%"}
{"smiles": "C[C@H]1CN([C@@H](C)CO)C(=O)c2cc(NS(=O)(=O)c3cccs3)ccc2O[C@H]1CN(C)S(C)(=O)=O", "activation": "active: 449%"}
{"smiles": "CN(CC(=O)Nc1ccccc1C(F)(F)F)C(=O)COc1ncnc2sccc12", "activation": "inactive: -0.0715%"}
{"smiles": "COC(=O)C[C@@H]1CC[C@H]2[C@H](COc3ccc(NC(=O)c4cc(F)cc(F)c4)cc3C(=O)N2C)O1", "activation": "inconclusive: 28.2%"}
